This note sets out measurements from the supplement of paper PMC10338343.

± gives the standard deviation. Whole data set: some 6,600 sequences, median “pre-steady-state target cleavage rate” near 0.07, cut for the highest 2% near 0.72. Only a part is listed here, and it is no random draw.
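Note: 1 nM active piRISC with 0.1 nM target library at 33 °C single turnover.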

In the assay the test system is MIWI (PIWIL1) piRISC loaded with Kctd7 piRNA (30 nt). Description: pre-steady-state target cleavage rate (min^-1); MIWI and MILI are mouse PIWI proteins and EfPiwi is from a freshwater sponge; tags in brackets are library labels; higher = faster piRNA-guided slicing of the target. As to conditions: guide: Kctd7 piRNA 5'p-UGUUAAUCUCUCAGAGAAGGUGACAGUGAU; auxiliary factor: 500 nM mouse GTSF1. Put shortly: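 A burst-and-steady-state fit was used to obtain the pre-steady-state cleavage rate. The input data were sequencing reads of uncleaved targets, normalised to depth and to weakly complementary targets, from a […] transcribed, DNA-blocked target RNA library mixed with 1 nM active affinity-purified piRISC holding one synthetic guide, with or without 500 nM GTSF1 partner protein, in HEPES–potassium acetate buffer at 33 °C for 0–8 or 0–960 min. Three trials were pooled and k3 was capped at 0.0001 min^-1.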
As to AACACUGUCACCUUCUCAGAGAGAUUAACA, the “pre-steady-state target cleavage rate” value was 0.429 ± 0.024.

Consider UACACUCUCACCUUCUCUGAGACAUUAACA, for which the “pre-steady-state target cleavage rate” value is 0.294 ± 0.023.

Consider UAGUGACUCUCCAUCUCUGAGAGAUUAACA, for which the “pre-steady-state target cleavage rate” value is 0.00895 ± 0.0026.

As for UAGUGACAGUGGAACUCUGAGAGAUUAAGCA, the “pre-steady-state target cleavage rate” value was less than 0.0001.

In the case of UAGUGACUCACCUUCACUGAGAGAUAAACA, the “pre-steady-state target cleavage rate” value was found to be 0.0971 ± 0.015.

On to UAGUGACUCACCUUCUCUGAGAGAUUACACA, for which the “pre-steady-state target cleavage rate” value worked out at 0.19 ± 0.043.

For the sequence UAGUCUGACACCUUCUCUGAGAGAUAAACA, the “pre-steady-state target cleavage rate” value stood at 0.273 ± 0.026.

On to UUCACUGUCACGUUCUCUGAGAGAAUAACA, for which the “pre-steady-state target cleavage rate” value turned out to be 0.236 ± 0.038.

On to UAGUGACACACCUUCUCUGACAGAUUAACA, for which the “pre-steady-state target cleavage rate” value is 0.22 ± 0.028.

As to UAGUGACAGUCCUUCUCUGAGCGAUUAACA, the “pre-steady-state target cleavage rate” value was determined as 0.00949 ± 0.0032.

With UAGUGACUCAGCCUUCUCUGAGAGAUUAACA, the “pre-steady-state target cleavage rate” value worked out at 0.101 ± 0.0099.

Turning to “UAGUGAGUCACCUUCUCUGAGAGUAAUUGA [g8:g24:cont:t1A]”, the “pre-steady-state target cleavage rate” value worked out at 0.0181 ± 0.008.

Consider UAGUGAGUCACCUAGUCUGAGAGAUUAACA, for which the “pre-steady-state target cleavage rate” value was 0.276 ± 0.02.

Consider UAGUGUGUCACCUUCUCUGAGAGAAAAUGA, for which the “pre-steady-state target cleavage rate” value was 0.0301 ± 0.0098.

As for UAGUGUGUCACCUUCUGUGAGAGAAUAACA, the “pre-steady-state target cleavage rate” value worked out at 0.0788 ± 0.011.

For UAGUGAGUCACUUUCUCUGAGAGAUUAACA, the “pre-steady-state target cleavage rate” value worked out at 0.641 ± 0.029.

Turning to UAGUGUCUCACCUUCUCUGAGAGAUUAACA, the “pre-steady-state target cleavage rate” value worked out at 0.658 ± 0.043.

Turning to UUCACUGUCACCUUCACUGAGAGAUUUACA, the “pre-steady-state target cleavage rate” value came out at 0.353 ± 0.049.

In the case of UACACAGUCAGCUUCUCUGAGAGAUUAACA, the “pre-steady-state target cleavage rate” value was 0.637 ± 0.028.

As to AUCAGUGUCACCUUCUCUGAGAGAUUAAGA, the “pre-steady-state target cleavage rate” value was found to be 0.143 ± 0.03.

As for AUCACUGUCACCUUCUCUGAGAGUAAAACA, the “pre-steady-state target cleavage rate” value stood at 0.125 ± 0.024.

Consider AUCACUGUCACCUUCUCUGAGAGAUUAAA, for which the “pre-steady-state target cleavage rate” value stood at 0.223 ± 0.029.

Turning to UAGUGACAGUCCUUCUCUGAGAGCUUAACA, the “pre-steady-state target cleavage rate” value worked out at 0.0171 ± 0.0038.

Take UAGUGAGUCACCUACUCUGAGUGAUUAACA: the “pre-steady-state target cleavage rate” value was 0.024 ± 0.0056.

Take UAGUGACACACCUUCUCAGAGAGAUUUUGA: the “pre-steady-state target cleavage rate” value amounted to 0.00465 ± 0.0033.

As for UAGUGAGUCACCUUCUCAGAGAGAUUAACA, the “pre-steady-state target cleavage rate” value amounted to 0.514 ± 0.035.

As for UAGACUGUCACCUUCUCUGAGAGAUAUAACA, the “pre-steady-state target cleavage rate” value amounted to 0.344 ± 0.034.

For the sequence UUCACUGUCACCAUCUCUGAGAGAUUUACA, the “pre-steady-state target cleavage rate” value amounted to 0.274 ± 0.035.

As to UUCUCUGUCACCUUCUCUGAGAGAUUUACA, the “pre-steady-state target cleavage rate” value turned out to be 0.244 ± 0.036.

On to UACACUCAGACCUUCUCUGAGAGAUUAAGA, for which the “pre-steady-state target cleavage rate” value turned out to be 0.0222 ± 0.0091.

Consider AUCACUGUCACCUUCUCAGAGACAUUAACA, for which the “pre-steady-state target cleavage rate” value is 0.136 ± 0.014.

For the sequence UAGUGAGUCACCAUCUCUGAGAGAUUAUCA, the “pre-steady-state target cleavage rate” value came to 0.233 ± 0.038.

For the sequence UUCACACACACCUUCUCUGAGAGAUUUUGA, the “pre-steady-state target cleavage rate” value is 0.137 ± 0.035.

In the case of UAGUCUGUCACCUUCUCUGUGAGAUUAAGA, the “pre-steady-state target cleavage rate” value came to 0.0828 ± 0.017.

In the case of UAGUGUGUCUCCUUCUCUGAGAGAUAAACA, the “pre-steady-state target cleavage rate” value worked out at 0.0854 ± 0.018.

Take UAGUCUGUCACGUUCACUGAGAGAUUAACA: the “pre-steady-state target cleavage rate” value amounted to 0.305 ± 0.02.

As for AUCUCUGUCACCUUCUCUGAGAGAUUAUGA, the “pre-steady-state target cleavage rate” value worked out at 0.118 ± 0.023.

Regarding UAGACUGACACCUUCUCUGAGAGAUAUUGA, the “pre-steady-state target cleavage rate” value was 0.0107 ± 0.0038.

UAGUGACUCACCUUCUCAGAGAGAUUAAGA: the “pre-steady-state target cleavage rate” value turned out to be 0.0314 ± 0.0054.

For the sequence AUCACUGUCACCUUCUCUGUGUGAUUAACA, the “pre-steady-state target cleavage rate” value is 0.0275 ± 0.011.

Take UAGUGACACACCUUCUCUGAGAGAAAUACA: the “pre-steady-state target cleavage rate” value was found to be 0.0687 ± 0.015.

Take UAGUCUGUCACCUUCUCUCAGAGAUUAUGA: the “pre-steady-state target cleavage rate” value was 0.00931 ± 0.0051.

In the case of UACACUCUCACCUUCUCUGAGAGAUAAACA, the “pre-steady-state target cleavage rate” value was 0.181 ± 0.027.

UAGUGAGUCACCUUCUCUGAGUCAUUAACA: the “pre-steady-state target cleavage rate” value is 0.0116 ± 0.0049.

Turning to UAGUGACAGUGCUUCUCUGAGACAUUUACA, the “pre-steady-state target cleavage rate” value was less than 0.0001.

As to UUCACUCUCACCUACUCUGAGAGAUUAACA, the “pre-steady-state target cleavage rate” value was found to be 0.495 ± 0.027.

In the case of UAGUGUGUCAGCUUCUCUGAGUGAUUAACA, the “pre-steady-state target cleavage rate” value was found to be 0.0228 ± 0.003.

UACACUGUCACCUUCUGUCAGAGAUUAACA: the “pre-steady-state target cleavage rate” value came out at 0.0156 ± 0.0071.

Regarding UAGUGACUCACCUUCUCUGAGAGAUUAUACA, the “pre-steady-state target cleavage rate” value amounted to 0.265 ± 0.037.

Turning to UAGUGACACACCUUCUCUGAGAGUAAAACA, the “pre-steady-state target cleavage rate” value came to 0.0391 ± 0.0073.

As for UAGUGACUCACCUUCUGAGAGAGAUUAACA, the “pre-steady-state target cleavage rate” value came to 0.0117 ± 0.0032.

For the sequence UAGUGUGUCACAUUCUCUGAGAGAUUAACA, the “pre-steady-state target cleavage rate” value was 0.639 ± 0.048.

In the case of UAGUGAGUCACCUUCUCCGAGAGAUUAACA, the “pre-steady-state target cleavage rate” value came to 0.497 ± 0.087.

As to UAGUGACACACGUUCUGUGAGAGAUUAACA, the “pre-steady-state target cleavage rate” value was 0.0809 ± 0.0097.

As for UACACUGUCAGCUUCUCUGAGAGUUUAACA, the “pre-steady-state target cleavage rate” value came out at 0.111 ± 0.014.

Regarding UUCAAUGUCACCUUCUCUGAGAGAUUAACA, the “pre-steady-state target cleavage rate” value worked out at 0.528 ± 0.018.

On to UACACUGUCACCUUCUCAGAGAGAUUAUCA, for which the “pre-steady-state target cleavage rate” value was 0.132 ± 0.025.

Regarding UAGUGACUCACCUUCUCUGAGAGAGUAACA, the “pre-steady-state target cleavage rate” value turned out to be 0.225 ± 0.027.

With UACACUGUCACCUUCUGUGAGAGAUUUACA, the “pre-steady-state target cleavage rate” value amounted to 0.174 ± 0.024.

With UACAGUGUCACCUUCUCUGAGAGAUUAUGA, the “pre-steady-state target cleavage rate” value stood at 0.095 ± 0.022.

As for UAGUGUGUCACCUUCUCUGCGAGAUUAACA, the “pre-steady-state target cleavage rate” value worked out at 0.37 ± 0.034.

As for UAGUCUGUCAGCUUCACUGAGAGAUUAACA, the “pre-steady-state target cleavage rate” value stood at 0.164 ± 0.013.

Consider AUCACGGUCACCUUCUCUGAGAGAUUAACA, for which the “pre-steady-state target cleavage rate” value was determined as 0.637 ± 0.024.

UAGUGAGUCACCUUCUCUGAGAGUUUAUCA: the “pre-steady-state target cleavage rate” value came to 0.121 ± 0.035.

Consider UAGUGACACUCCUUGUCUGAGAGAUUAACA, for which the “pre-steady-state target cleavage rate” value turned out to be 0.0705 ± 0.012.

Take UACACUGUCACCAUCUCUGAGAGAAUAACA: the “pre-steady-state target cleavage rate” value worked out at 0.161 ± 0.032.

With UAGUCUGUCACUUCUCUGAGAGAUUAACA, the “pre-steady-state target cleavage rate” value came out at 0.438 ± 0.027.

UAGAGUGUCACCUUCUCUGAGAGAUUUUGA: the “pre-steady-state target cleavage rate” value turned out to be 0.0863 ± 0.019.

On to UAGUCAGACACCUUCUCUGAGAGAUUAACA, for which the “pre-steady-state target cleavage rate” value stood at 0.43 ± 0.033.

For UAGUCUGUCACCUUCUCUGAGGGAUUAACA, the “pre-steady-state target cleavage rate” value is 0.596 ± 0.026.

Turning to UAGUCUGUCAGCUUCUCUGAGAGAAUAACA, the “pre-steady-state target cleavage rate” value came out at 0.233 ± 0.041.

In the case of UUCAGUGUCACCUUCUCUGAGAGAUAAACA, the “pre-steady-state target cleavage rate” value was found to be 0.264 ± 0.033.
